In the supplement of paper PMC12067230:
The data scatter; read single values as rough.

B1: library; a variant is named by its letters at X, in order (parent)
chain: EASNCFAIRHFENKFAVETLICXXXXXXXX

Variants of: B1
Assay: amyloid nucleation score relative to library mode (yeast Sup35 reporter selection) (log enrichment difference); higher = more amyloid nucleation; sequences are the first 22 residues of the Bri2 peptide extended by up to 12 random residues
Settings: random library (experiment): 3;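 active = nucleation score significantly above 0 at FDR 0.05; inactive = not significantly above 0 or absent from output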
Protocol: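 Random C-terminal extensions of the 22-aa Bri2 peptide by 12 NNK codons; premature stops give shorter extensions. Peptides were fused to the Sup35 nucleation domain in S. cerevisiae [psi-pin-] and selected on -ADE-URA plates for 7 d at 30 °C. The nucleation score is log(output/input), centred to the mode of each of 3 independent libraries (1 input, 3 technical output replicates), with duplicates merged. Sequences absent from the output ('random_non_nuc') were imputed with the library mode value, so they are given as censored (<). Nucleators are scores significantly >0 at FDR 0.05.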
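Note: [psi-pin-] Saccharomyces cerevisiae expressing SupN fusions, induced by 100 µM Cu2SO4, selected 7 d at 30 °C without adenine and uracil, scored by deep sequencing of output versus input.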

| Variant | amyloid nucleation score |
| --- | --- |
| EASNCFAIRHFENKFAVETLICWMWLSISM [WMWLSISM] | inactive |
| EASNCFAIRHFENKFAVETLICWSSRSERC [WSSRSERC] | 4.51 |
| EASNCFAIRHFENKFAVETLICVDASKRVT [VDASKRVT] | 4.46 |
| EASNCFAIRHFENKFAVETLICAWYLISGN [AWYLISGN] | -0.558 |
| EASNCFAIRHFENKFAVETLICAVVGRWNL [AVVGRWNL] | 2.06 |
| EASNCFAIRHFENKFAVETLICYRLQGTDH [YRLQGTDH] | 2.93 |
| EASNCFAIRHFENKFAVETLICHMVRRGSA [HMVRRGSA] | 3.36 |
| EASNCFAIRHFENKFAVETLICIYVRRWPI [IYVRRWPI] | inactive |
| EASNCFAIRHFENKFAVETLICLWVTTNGI [LWVTTNGI] | inactive |
| EASNCFAIRHFENKFAVETLICRSKDSPRM [RSKDSPRM] | inactive |
| EASNCFAIRHFENKFAVETLICDLMGRMLP [DLMGRMLP] | 0.903 |
| EASNCFAIRHFENKFAVETLICLYCNTVRK [LYCNTVRK] | 5.06 |
| EASNCFAIRHFENKFAVETLICCPRDEVSV [CPRDEVSV] | inactive |
| EASNCFAIRHFENKFAVETLICPCVGSPRV [PCVGSPRV] | 6.73 |
| EASNCFAIRHFENKFAVETLICVVIGFARG [VVIGFARG] | inactive |
| EASNCFAIRHFENKFAVETLICMRVFWDCV [MRVFWDCV] | inactive |
| EASNCFAIRHFENKFAVETLICVVRSSHKP [VVRSSHKP] | inactive |

Same assay, conditions: random library (experiment): 2

| Variant | amyloid nucleation score |
| --- | --- |
| EASNCFAIRHFENKFAVETLICACFCYYMY [ACFCYYMY] | 4.05 |
| EASNCFAIRHFENKFAVETLICNLQHNQKQ [NLQHNQKQ] | 4.21 |
| EASNCFAIRHFENKFAVETLICFFLCETLP [FFLCETLP] | 3.45 |
| EASNCFAIRHFENKFAVETLICLYCLWDGL [LYCLWDGL] | 3.47 |
| EASNCFAIRHFENKFAVETLICCVLVNRYR [CVLVNRYR] | 7.44 |
| EASNCFAIRHFENKFAVETLICVTMAVVGE [VTMAVVGE] | 0.693 |
| EASNCFAIRHFENKFAVETLICIYIQMHCR [IYIQMHCR] | inactive |
| EASNCFAIRHFENKFAVETLICPCDFMCWF [PCDFMCWF] | 8.93 |
| EASNCFAIRHFENKFAVETLICRRLMADIS [RRLMADIS] | inactive |
| EASNCFAIRHFENKFAVETLICASSNCTAF [ASSNCTAF] | 4.67 |
| EASNCFAIRHFENKFAVETLICIHGSGNAH [IHGSGNAH] | 2.31 |
| EASNCFAIRHFENKFAVETLICEDSWIYIY [EDSWIYIY] | 3.75 |
| EASNCFAIRHFENKFAVETLICNSKICLGN [NSKICLGN] | 6.04 |
| EASNCFAIRHFENKFAVETLICGHWTLLLL [GHWTLLLL] | inactive |
| EASNCFAIRHFENKFAVETLICFWSGMYWH [FWSGMYWH] | inactive |
| EASNCFAIRHFENKFAVETLICTNCLCRRD [TNCLCRRD] | 8.14 |
| EASNCFAIRHFENKFAVETLICLFLGLYNV [LFLGLYNV] | -0.663 |
| EASNCFAIRHFENKFAVETLICDLVYSNMW [DLVYSNMW] | 3.29 |
| EASNCFAIRHFENKFAVETLICVCTWRFFY [VCTWRFFY] | inactive |

| Variant | amyloid nucleation score |
| --- | --- |
| EASNCFAIRHFENKFAVETLICVWIANNSV [VWIANNSV] | inactive |
| EASNCFAIRHFENKFAVETLICRYISQHDV [RYISQHDV] | inactive |
| EASNCFAIRHFENKFAVETLICIGRESGQK [IGRESGQK] | inactive |
| EASNCFAIRHFENKFAVETLICFVLVFMCY [FVLVFMCY] | inactive |
| EASNCFAIRHFENKFAVETLICLLLISGNV [LLLISGNV] | inactive |
| EASNCFAIRHFENKFAVETLICRKSYNCFC [RKSYNCFC] | inactive |
| EASNCFAIRHFENKFAVETLICLLTFMRAG [LLTFMRAG] | inactive |
| EASNCFAIRHFENKFAVETLICWMVKFEPD [WMVKFEPD] | -0.255 |
| EASNCFAIRHFENKFAVETLICCAAWYGDD [CAAWYGDD] | 9.01 |
| EASNCFAIRHFENKFAVETLICFSTRVLCF [FSTRVLCF] | 5.59 |
| EASNCFAIRHFENKFAVETLICMTGYSSHC [MTGYSSHC] | inactive |
| EASNCFAIRHFENKFAVETLICDINVVSLN [DINVVSLN] | 7.28 |
| EASNCFAIRHFENKFAVETLICTVQPLGTV [TVQPLGTV] | -0.322 |
| EASNCFAIRHFENKFAVETLICCTSRRCCL [CTSRRCCL] | 5.75 |
| EASNCFAIRHFENKFAVETLICVTSCYCCV [VTSCYCCV] | 2.9 |
| EASNCFAIRHFENKFAVETLICARESRIAN [ARESRIAN] | inactive |
| EASNCFAIRHFENKFAVETLICLGYLRYRL [LGYLRYRL] | inactive |
| EASNCFAIRHFENKFAVETLICLMWYCSRR [LMWYCSRR] | 3.23 |
| EASNCFAIRHFENKFAVETLICWTHCCTHY [WTHCCTHY] | 7.86 |

| Variant | amyloid nucleation score |
| --- | --- |
| EASNCFAIRHFENKFAVETLICFKYFRLKA [FKYFRLKA] | inactive |
| EASNCFAIRHFENKFAVETLICYYLEVIAC [YYLEVIAC] | inactive |
| EASNCFAIRHFENKFAVETLICAIRVSTVF [AIRVSTVF] | inactive |
| EASNCFAIRHFENKFAVETLICGYMTSARR [GYMTSARR] | 3.17 |
| EASNCFAIRHFENKFAVETLICKHGTETWC [KHGTETWC] | -0.293 |
| EASNCFAIRHFENKFAVETLICLMVSFSNN [LMVSFSNN] | 4.81 |
| EASNCFAIRHFENKFAVETLICFDLYILPE [FDLYILPE] | -0.0862 |
| EASNCFAIRHFENKFAVETLICIISPRSAE [IISPRSAE] | 7.05 |
| EASNCFAIRHFENKFAVETLICTVPVTSRY [TVPVTSRY] | inactive |
| EASNCFAIRHFENKFAVETLICRNLGVFPF [RNLGVFPF] | 6.18 |
| EASNCFAIRHFENKFAVETLICEVLRLGQS [EVLRLGQS] | 5 |
| EASNCFAIRHFENKFAVETLICLLTGYMSV [LLTGYMSV] | 3.87 |
| EASNCFAIRHFENKFAVETLICNGTMFHGF [NGTMFHGF] | 7.66 |
| EASNCFAIRHFENKFAVETLICCKCRKWRF [CKCRKWRF] | 5.03 |
| EASNCFAIRHFENKFAVETLICIVSLSGSF [IVSLSGSF] | inactive |
| EASNCFAIRHFENKFAVETLICILMMSDMV [ILMMSDMV] | inactive |
| EASNCFAIRHFENKFAVETLICCVWYSYAW [CVWYSYAW] | 7.48 |
| EASNCFAIRHFENKFAVETLICLRFCHICV [LRFCHICV] | inactive |
